These results are taken from PubChem BioAssay AID220 (DTP/NCI, 2004).

For this experiment, the system named is CD8F1 mice, subcutaneous mammary adenocarcinoma, T/C%. Description: NCI In Vivo Anticancer Drug Screen. Data for tumor model Mammary Adenocarcinoma CD8F1 (subcutaneous) in CD8F1. To be noted: higher = larger tumour. How it is done:
The antitumor activity of compounds was measured in mice bearing transplantable tumors. Survival or tumor size were measured and the results are expressed as the measurement made in the treated group (T) divided by the measurement made in the vehicle treated control group (C). The tumor model used in this assay is Mammary Adenocarcinoma CD8F1 (subcutaneous) in CD8F1

Where [1] appears, read: endpoint: median tumor weight (est.), dose: 1.0 mg/kg/injection, schedule: Q07DX005 (ip), vehicle: saline.
The mark [2] stands for this setting: endpoint: median tumor weight (est.), dose: 2.0 mg/kg/injection, schedule: Q07DX005 (ip), vehicle: saline.
Setting [3] is: endpoint: median tumor weight (est.), dose: 100.0 mg/kg/injection, schedule: Q07DX005 (ip), vehicle: saline with Tween-80.
The mark [4] stands for this setting: endpoint: median tumor weight (est.), dose: 12.5 mg/kg/injection, schedule: Q07DX005 (ip), vehicle: saline with Tween-80.

Results filed as inconclusive are left out. Some entries of the source have several records that differ or are many. This list holds those alone. The source may hold further records. Results that share an entry are repeated measurements across runs, samples, wells, individuals or studies. What stands in brackets tells the records apart. Letters count within one entry. Starred links: 1 amine or outer side, 2 acyl side, 3 side chain; linkers in the order of their positions; H or OH if unused. Positions of bridges follow the written chain, without caps; N, C: chain ends. Non-standard residues stand in square brackets, D forms with d. Residues, ends and D or L forms follow the SMILES beside them. Chains are numbered I, II in the order given. Actinocin(9to1) = Cc1c2oc3c(C)ccc(C(=O)[*:1])c3nc-2c(C(=O)[*:2])c(N)c1=O; NMeV = CN[CH](C(=O)O)C(C)C; Sar = CNCC(=O)O

Take `CSCS(=O)C[C@H](CO)NC(=O)/C=C/c1c(C)[nH]c(=O)[nH]c1=O` (stereo partly drawn): the T/C under setting [1] was 11 % of control and 64 % of control; the T/C under setting [2] was 69 % of control and 101 % of control. `CC(=Nc1ccccc1)C1=C(O)C(Cc2ccccc2)NC1=O` (stereo not drawn): the T/C is, setting by setting: (endpoint: median tumor weight (est.), dose: 25.0 mg/kg/injection, schedule: Q07DX005 (ip), vehicle: saline with Tween-80) 111 % of control and 198 % of control; under setting [3], 96 % of control and 311 % of control. `COc1ccc(S(=O)(=O)N/N=C/C(=O)O)cc1`: under setting [3], the T/C was 15 % of control and 57 % of control. `CN1C(=O)NC(c2ccc(Cl)cc2)(c2ccc(Cl)cc2)C1=O`: the T/C (endpoint: median tumor weight (est.), dose: 12.5 mg/kg/injection, schedule: Q07DX005 (ip), vehicle: distilled water + Tween-80) is 124 % of control and 151 % of control; the T/C (endpoint: median tumor weight (est.), dose: 25.0 mg/kg/injection, schedule: Q07DX005 (ip), vehicle: distilled water + Tween-80) was 66 % of control, 160 % of control, 163 % of control; the T/C (endpoint: median tumor weight (est.), dose: 50.0 mg/kg/injection, schedule: Q07DX005 (ip), vehicle: distilled water + Tween-80) was 111 % of control and 151 % of control; the T/C (endpoint: median tumor weight (est.), dose: 100.0 mg/kg/injection, schedule: Q07DX005 (ip), vehicle: distilled water + Tween-80) is on record as 97 % of control, 98 % of control, 198 % of control; the T/C (endpoint: median tumor weight (est.), dose: 200.0 mg/kg/injection, schedule: Q07DX005 (ip), vehicle: distilled water + Tween-80) is 64 % of control and 198 % of control; the T/C (endpoint: median tumor weight (est.), dose: 400.0 mg/kg/injection, schedule: Q07DX005 (ip), vehicle: distilled water + Tween-80) is 1 % of control and 50 % of control.

Regarding `COc1cc(NS(C)(=O)=O)ccc1Nc1c2ccccc2nc2ccccc12`, the T/C was 75 % of control and 123 % of control (endpoint: median tumor weight (est.), dose: 8.0 mg/kg/injection, schedule: Q07DX005 (ip), vehicle: Klucel (hydroxypropylcellulose) (HPC)); 46 % of control and 78 % of control (endpoint: median tumor weight (est.), dose: 16.0 mg/kg/injection, schedule: Q07DX005 (ip), vehicle: Klucel (hydroxypropylcellulose) (HPC)). Regarding `COc1cc([C@@H]2c3cc4c(cc3[C@@H](OC3OC5CO[C@@H](c6cccs6)OC5C(O)C3O)[C@H]3COC(=O)[C@H]23)OCO4)cc(OC)c1O` (stereo partly drawn), the T/C reads like this: under setting [1], 41 % of control and 114 % of control; (endpoint: median tumor weight (est.), dose: 1.0 mg/kg/injection, schedule: Q07DX005 (ip), vehicle: suspension in saline) 79 % of control and 105 % of control; under setting [2], 62 % of control and 105 % of control; (endpoint: median tumor weight (est.), dose: 8.0 mg/kg/injection, schedule: Q07DX005 (ip), vehicle: saline) 7 % of control and 106 % of control; (endpoint: median tumor weight (est.), dose: 16.0 mg/kg/injection, schedule: Q07DX005 (ip), vehicle: suspension in saline) 59 % of control and 98 % of control. `Nc1nc(=S)c2ncn(C3CC(O)C(CO)O3)c2[nH]1` (stereo not drawn): the T/C (endpoint: median tumor weight (est.), dose: 5.0 mg/kg/injection, schedule: Q07DX005 (ip), vehicle: saline with Tween-80) was 12 % of control and 53 % of control.

For the molecule `O=C(O)CSc1nc(-c2ccccc2)c(-c2ccccc2)n1-c1ccccn1`, the T/C by setting is: (endpoint: median tumor weight (est.), dose: 50.0 mg/kg/injection, schedule: Q07DX005 (ip), vehicle: water) 89 % of control and 186 % of control; (endpoint: median tumor weight (est.), dose: 100.0 mg/kg/injection, schedule: Q07DX005 (ip), vehicle: water) 29 % of control and 74 % of control. As for `CCC[CH2][Sn]1([CH2]CCC)[O]C2C(CO)OC(n3ccc(N)nc3=O)C2[O]1` (stereo not drawn), for the setting “endpoint: median tumor weight (est.), dose: 3.12 mg/kg/injection, schedule: Q07DX005 (ip), vehicle: Klucel (hydroxypropylcellulose) (HPC)”, the T/C was 26 % of control and 63 % of control. On to `Cc1c[nH]c(=O)[nH]c1=O`, for which, under “endpoint: median tumor weight (est.), dose: 32.0 mg/kg/injection, schedule: Q07DX005 (ip), vehicle: Klucel (hydroxypropylcellulose) (HPC)”, the T/C is 32 % of control and 153 % of control. For `N[C@@H](Cc1ccc(N(CCCl)CCCl)cc1)C(=O)O`, the T/C (endpoint: median tumor weight (est.), dose: 2.0 mg/kg/injection, schedule: Q07DX005 (ip), vehicle: suspension in saline) is 17 % of control and 49 % of control. Regarding `O=c1n(CC2CO2)c(=O)n(CC2CO2)c(=O)n1CC1CO1` (stereo not drawn), the T/C (endpoint: median tumor weight (est.), dose: 25.0 mg/kg/injection, schedule: Q07DX005 (ip), vehicle: suspension in saline) was 85 % of control [sample A] and 39 % of control [sample B].

Turning to `Cc1c2oc3c(C)ccc(C(=O)NC4C(=O)NC(C(C)C)C(=O)N5CCCC5C(=O)N(C)CC(=O)N(C)C(C(C)C)C(=O)OC4C)c3nc-2c(C(=O)NC2C(=O)NC(C(C)C)C(=O)N3CCCC3C(=O)N(C)CC(=O)N(C)C(C(C)C)C(=O)OC2C)c(N)c1=O` (stereo not drawn) (I: TVP[Sar][NMeV] / II: TVP[Sar][NMeV]; ester I:1-I:C, II:1-II:C; linker I:N-II:N via Actinocin(9to1); configuration not given here), the T/C (endpoint: median tumor weight (est.), dose: 0.25 mg/kg/injection, schedule: Q07DX005 (ip), vehicle: saline) was 24 % of control and 76 % of control. With `CC(=O)c1cccc(NC2C(N)C(NC(=O)N(C)C)(C(C)O)C(C)(O)C2(O)COC(=O)c2c(C)cccc2O)c1` (stereo not drawn), where the note is “endpoint: median tumor weight (est.), dose: 0.9 mg/kg/injection, schedule: Q07DX005 (ip), vehicle: saline with Tween-80”, the T/C was 44 % of control and 73 % of control. Consider `CC(CN1CC(=O)NC(=O)C1)N1CC(=O)NC(=O)C1` (stereo not drawn), for which, where the note is “endpoint: median tumor weight (est.), dose: 100.0 mg/kg/injection, schedule: Q07DX005 (ip), vehicle: Klucel (hydroxypropylcellulose) (HPC)”, the T/C is 12 % of control and 61 % of control.

On to `Nc1ncnc2c1ccn2C1OC(CO)C(O)C1O` (stereo not drawn), for which the T/C is 119 % of control and 180 % of control (endpoint: median tumor weight (est.), dose: 1.0 mg/kg/injection, schedule: Q07DX005 (ip), vehicle: Klucel (hydroxypropylcellulose) (HPC)); 89 % of control and 151 % of control (endpoint: median tumor weight (est.), dose: 2.0 mg/kg/injection, schedule: Q07DX005 (ip), vehicle: Klucel (hydroxypropylcellulose) (HPC)); 70 % of control and 122 % of control (endpoint: median tumor weight (est.), dose: 4.0 mg/kg/injection, schedule: Q07DX005 (ip), vehicle: Klucel (hydroxypropylcellulose) (HPC)). On to `CC[C@@]1(O)C[C@H](OC2CC(N(C)C)C(OC3CC(O)C(O[C@@H]4O[C@@H](C)C(=O)C=C4N)C(C)O3)C(C)O2)c2c(cc3c(c2O)C(=O)c2c(O)ccc(O)c2C3=O)[C@H]1C(=O)OC` (stereo partly drawn), for which the T/C is 33 % of control and 170 % of control (endpoint: median tumor weight (est.), dose: 0.75 mg/kg/injection, schedule: Q07DX005 (ip), vehicle: suspension in saline); 61 % of control and 154 % of control (endpoint: median tumor weight (est.), dose: 1.5 mg/kg/injection, schedule: Q07DX005 (ip), vehicle: suspension in saline). Regarding `CN(C)N=Nc1ccc(S(N)(=O)=O)cc1`, where the note is “endpoint: median tumor weight (est.), dose: 25.0 mg/kg/injection, schedule: Q07DX005 (ip), vehicle: Klucel (hydroxypropylcellulose) (HPC)”, the T/C is 117 % of control and 168 % of control. In the case of `CCOC(C)C(/C=N/NC(N)=S)=NNC(N)=S` (stereo not drawn), the T/C is, setting by setting: under setting [4], 53 % of control and 115 % of control; (endpoint: median tumor weight (est.), dose: 200.0 mg/kg/injection, schedule: Q07DX005 (ip), vehicle: saline with Tween-80) 42 % of control and 69 % of control.

Turning to `COc1cc2cc3c4cc(OC)c(OC)cc4cc[n+]3c(C)c2cc1OC` (tested in a mixture with another compound), the T/C (endpoint: median tumor weight (est.), dose: 200.0 mg/kg/injection, schedule: Q07DX005 (ip), vehicle: suspension in saline) is 14 % of control and 55 % of control. Consider `c1ccc([P+](c2ccccc2)(c2ccccc2)c2ccccc2)cc1`, for which the T/C (endpoint: median tumor weight (est.), dose: 0.31 mg/kg/injection, schedule: Q04DX005 (ip), vehicle: saline) was 102 % of control and 162 % of control; the T/C (endpoint: median tumor weight (est.), dose: 0.62 mg/kg/injection, schedule: Q07DX004 (ip), vehicle: saline) was 77 % of control and 116 % of control; the T/C (endpoint: median tumor weight (est.), dose: 2.5 mg/kg/injection, schedule: Q07DX004 (ip), vehicle: saline) was 76 % of control and 119 % of control. In the case of `O=S(=O)(c1ccccc1)N1CN2CCN(C2)C1`, the T/C was 64 % of control and 115 % of control under setting [4]; 40 % of control and 109 % of control (endpoint: median tumor weight (est.), dose: 50.0 mg/kg/injection, schedule: Q07DX005 (ip), vehicle: saline with Tween-80); 48 % of control and 105 % of control under setting [3]; 44 % of control and 78 % of control (endpoint: median tumor weight (est.), dose: 400.0 mg/kg/injection, schedule: Q07DX005 (ip), vehicle: saline with Tween-80). With `O=C1CN(Cc2ccc3c(c2)OCO3)NO1`, the T/C (endpoint: median tumor weight change, dose: 500.0 mg/kg/injection, schedule: Q01DX001 (ip), vehicle: saline with Tween-80) was 73 % of control and 102 % of control. For `Nc1nncs1`, the T/C reads like this: (endpoint: median tumor weight (est.), dose: 200.0 mg/kg/injection, schedule: Q07DX005 (ip), vehicle: Klucel (hydroxypropylcellulose) (HPC)) 21 % of control and 48 % of control; (endpoint: median tumor weight (est.), dose: 800.0 mg/kg/injection, schedule: Q07DX005 (ip), vehicle: Klucel (hydroxypropylcellulose) (HPC)) 7 % of control and 63 % of control. With `CC1CN1C(=O)NCCCCCCNC(=O)N1CC1C` (stereo not drawn), for the setting “endpoint: median tumor weight (est.), dose: 2.5 mg/kg/injection, schedule: Q07DX005 (ip), vehicle: Klucel (hydroxypropylcellulose) (HPC)”, the T/C is 100 % of control and 150 % of control.
